Inconclusive means that the source gave no clear call. Such entries were picked first, then a sample of the others. Potencies of inconclusive entries are left out as doubtful fits. Active and inactive are the calls of the source. Calls come from the whole dose curve; as a rule, active = well fitted inhibition curve with a large enough effect; inconclusive = small, poorly fitted or top-dose-only effect; inactive = no such curve, though single readings can be large or run the other way.
What follows are compounds tested against Rap guanine nucleotide exchange factor 3 (Homo sapiens) (UniProt O95398) (assay: Confirmatory qHTS for antagonist of cAMP-regulated guanine nucleotide exchange factor 3 (EPAC1) (AID 1645880; note: nearly all actives have a fitted effect of over 55% in size)). Details: EPAC1 Rap1B-BODIPY-GDP exchange, fluorescence; series mostly up to 115 µM.
Chain of UniProt O95398 (O95398 whole entry, looked up): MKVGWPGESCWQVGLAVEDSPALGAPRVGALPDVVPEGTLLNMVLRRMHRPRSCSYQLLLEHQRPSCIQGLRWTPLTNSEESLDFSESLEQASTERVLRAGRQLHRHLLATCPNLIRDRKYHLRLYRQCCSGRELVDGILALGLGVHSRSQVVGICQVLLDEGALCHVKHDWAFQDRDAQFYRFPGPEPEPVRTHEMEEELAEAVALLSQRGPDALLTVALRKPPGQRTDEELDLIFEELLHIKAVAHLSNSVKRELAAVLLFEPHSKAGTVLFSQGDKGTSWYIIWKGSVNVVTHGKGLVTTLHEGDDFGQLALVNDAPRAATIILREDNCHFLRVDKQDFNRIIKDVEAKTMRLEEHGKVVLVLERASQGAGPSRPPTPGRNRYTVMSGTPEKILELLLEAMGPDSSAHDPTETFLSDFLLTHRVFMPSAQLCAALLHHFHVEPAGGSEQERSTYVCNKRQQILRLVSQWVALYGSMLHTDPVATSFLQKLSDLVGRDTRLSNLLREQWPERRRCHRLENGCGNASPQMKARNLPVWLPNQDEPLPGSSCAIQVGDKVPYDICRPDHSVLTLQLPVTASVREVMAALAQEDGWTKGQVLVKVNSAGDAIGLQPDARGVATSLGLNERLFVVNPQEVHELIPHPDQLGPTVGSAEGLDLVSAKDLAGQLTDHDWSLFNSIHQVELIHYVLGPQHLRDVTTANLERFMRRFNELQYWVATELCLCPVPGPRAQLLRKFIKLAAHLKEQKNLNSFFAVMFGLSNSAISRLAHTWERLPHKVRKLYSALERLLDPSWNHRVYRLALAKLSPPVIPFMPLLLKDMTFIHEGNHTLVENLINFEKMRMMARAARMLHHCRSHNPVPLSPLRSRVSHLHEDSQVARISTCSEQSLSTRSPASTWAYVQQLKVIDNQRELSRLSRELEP
How it was run: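 Nucleotide exchange uses 100 nM EPAC1, 250 nM RAP1B-BODIPY-GDP and 50 uM GDP, with compounds in a concentration-titration series. After 5 min at room temperature, fluorescence (480 nm ex/540 nm em) is read every 5 min for 30 min. Data are normalized to control ATA and DMSO.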
Potency is the fitted concentration of half-maximal effect; tags give direction and shape of the fitted curve.

| SMILES | Potency |
| --- | --- |
| COc1ccc(S(=O)(=O)N2CCOC23CCN(S(=O)(=O)c2cccs2)CC3)cc1 | inactive |
| COc1ccc(S(=O)(=O)N2CCCCCC2)cc1C(=O)N1CCCC(C(F)(F)F)C1 (configuration not stated) | inactive |
| CCc1ccc2c(c1)NC(=O)C2(C)Cc1ccccc1OC (configuration not stated) | inconclusive [inhibitor, partial curve, poor fit] |
| O=S(=O)(NCC(c1cccnc1)N1CCN(c2ccccc2F)CC1)c1cccs1 (configuration not stated) | inconclusive [inhibitor, full curve] |
| CCCC1=C/C(=C/c2ccc(-c3ccccc3OC)o2)C(=O)O1 | inconclusive [inhibitor, partial curve] |
| C[C@@H]1CN([C@@H](C)CO)C(=O)c2ccccc2-c2ccccc2CO[C@@H]1CN(C)S(=O)(=O)c1ccc(C(F)(F)F)cc1 | inconclusive [inhibitor, partial curve] |
| CC(=O)O[C@H]1c2ccccc2-c2ccccc2[C@@H]1OC(C)=O | inactive |
| COc1cc(OC)c(NC(=O)N2CCC(CN3CCOCC3)CC2)cc1Cl | inactive |
| Cc1cccc(Cn2c(COc3ccccc3)nc3ccccc32)c1 | inconclusive [inhibitor, single point] |
| CCC(C)[C@H]1COCCS(=O)(=O)N1Cc1ccc(Cl)cc1Cl (some centres not stated) | inconclusive [inhibitor, full curve, poor fit] |
| CC(OC(=O)CC1CCCCC1)C(=O)Nc1ccc(S(N)(=O)=O)cc1 (configuration not stated) | inactive |
| Cc1ccc(NC(=O)Cn2nc(C)c3nn(-c4ccc(Cl)cc4)c(C)c3c2=O)cc1F | inactive |

Source: PubChem BioAssay (NCATS)
